The structures appear in SMILES notation. Over roughly 110,000 compounds, “z-score” has its median near -0.1; the highest 2% begin near 2. This is one part of the list.

In PubChem BioAssay AID488969 (Vanderbilt High Throughput Screening Facility, 2010) one finds z-score data, which are given here for 70 molecules.

The test addresses Metabotropic glutamate receptor 8 (Rattus norvegicus) (UniProt P70579). In words: rat mGluR8 modulators via GIRK flux, primary screen, cell-based, thallium flux, HTS (AID 488969). The following applies: HEK293 rat mGluR8, GIRK (G protein-gated inwardly rectifying potassium channel) thallium flux, FluoZin2; at 10 µM; stronger effect = higher value; submaximal glutamate (EC20) added with thallium.
UniProt P70579, sequence (P70579 whole entry, looked up): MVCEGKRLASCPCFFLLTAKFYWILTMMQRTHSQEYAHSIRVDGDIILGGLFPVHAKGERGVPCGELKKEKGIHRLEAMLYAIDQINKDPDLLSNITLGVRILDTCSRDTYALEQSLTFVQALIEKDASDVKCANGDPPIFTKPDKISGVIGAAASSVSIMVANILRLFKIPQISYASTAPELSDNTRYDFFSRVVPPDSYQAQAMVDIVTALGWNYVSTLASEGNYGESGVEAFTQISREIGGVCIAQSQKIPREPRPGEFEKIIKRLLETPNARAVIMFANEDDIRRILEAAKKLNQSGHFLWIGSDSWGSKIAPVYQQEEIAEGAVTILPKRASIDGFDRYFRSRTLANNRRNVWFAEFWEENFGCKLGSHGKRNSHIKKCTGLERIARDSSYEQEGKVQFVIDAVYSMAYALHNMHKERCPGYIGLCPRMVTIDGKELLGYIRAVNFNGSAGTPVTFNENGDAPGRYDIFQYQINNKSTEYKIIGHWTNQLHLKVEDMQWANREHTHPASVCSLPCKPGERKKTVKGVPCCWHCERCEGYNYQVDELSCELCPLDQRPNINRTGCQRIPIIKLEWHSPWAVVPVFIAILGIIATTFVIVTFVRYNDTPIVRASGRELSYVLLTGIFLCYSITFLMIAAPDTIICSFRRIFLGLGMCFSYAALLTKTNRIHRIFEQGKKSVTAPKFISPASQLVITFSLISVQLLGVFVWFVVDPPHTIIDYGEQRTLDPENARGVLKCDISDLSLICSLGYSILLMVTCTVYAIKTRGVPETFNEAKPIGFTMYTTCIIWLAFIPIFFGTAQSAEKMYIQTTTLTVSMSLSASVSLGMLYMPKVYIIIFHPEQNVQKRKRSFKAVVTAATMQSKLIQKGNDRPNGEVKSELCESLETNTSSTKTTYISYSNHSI
Consider `O=c1cc(CO)oc(C(Nc2ccccn2)c2ccsc2)c1O` (stereo not given), for which the z-score is -0.352. Molecule `COC(=O)C(C)N(c1ccc(C)cc1)S(=O)(=O)c1c(C)[nH]c(=O)[nH]c1=O` (stereo not given) showed a z-score of -0.0145.

For `COc1ccc(CCN2C(=O)CC(NNC(=O)c3cccc(O)c3)C2=O)cc1` (stereo not given), the z-score was -0.268. `Cc1ccc(N)c2c1OCCC2=O` registered a z-score of -0.365. In the case of `CCOc1ccc(Br)cc1S(=O)(=O)Nc1ccc(Cl)c(S(=O)(=O)N(C)C)c1` it was -1.32. Next, `Cc1cccc(NC(=S)NC2CC3CCC(C2)N3Cc2ccco2)c1` (stereo not given): 0.812.

`CCOc1cc(N(CC)CC)ccc1/C=C(/C#N)c1nc2ccccc2[nH]1` gave a z-score of -0.645.

Take `CC1(C)CC(=O)C(C=NCc2cccnc2)=C(O)C1`: the z-score is -0.0188. In the case of `O=C(COc1ccc(-c2nnco2)cc1)NCc1ccccc1Cl` it was -0.263. In the case of `COc1ccc(-c2nnc(SC(C)C(=O)NCc3ccc4c(c3)OCO4)n2Cc2ccco2)cc1` (stereo not given), the z-score was -0.374. In the case of `COCCCNC(=O)/C=C/c1cccc(Cl)c1` it was 0.204; in that of `Cc1nc2ccccn2c1C(=O)Nc1ccc2c(c1)OCCO2`, 0.163; in that of `S=C(Nc1ccc(N2CCOCC2)cc1)Nc1ccc2nc(-c3ccco3)c(-c3ccco3)nc2c1`, 0.507. `CC(C)C(=O)Nc1ccc(NC(=O)c2cc3ccccc3o2)cc1` showed a z-score of -0.885.

The molecule `O=C(NCN1CCCCC1)c1cnccn1` yielded a z-score of -0.287. `CCn1c(=Nc2ccc(N3CCOCC3)cc2)ccc2ccccc21` yielded a z-score of -0.905. Next, `COc1ccc(CNC(=O)c2cnc3n(c2=O)CCS3)cc1`: -0.183; `O=C(NC(=S)Nc1cccc(CO)c1)c1ccc(-c2ccccc2)cc1`: -0.0673. Turning to `COc1ccc(NC(=O)c2cccc(C#N)c2)cc1NS(=O)(=O)c1ccc(F)cc1`, the z-score is -0.241.

As to `c1ccc2nc(N3CCOCC3)c(N3CCOCC3)nc2c1`, the z-score is -0.394. In the case of `Cc1ccc(C2CC(C(F)(F)F)n3nc(C(=O)NCC4CCCO4)cc3N2)cc1` (stereo not given) it was 0.887.

`CC(=O)NC(NC(C)=O)c1ccc(Br)cc1` displayed a z-score of -0.126. With `COc1ccc(C(=O)Nc2nc(C)c(C)s2)cc1OC`, the z-score is -0.276. The molecule `O=[N+]([O-])c1cc(C(F)(F)F)ccc1N1CCN(S(=O)(=O)c2ccc3c(c2)CCCC3)CC1` had a z-score of 0.0262. In the case of `Cc1cc(NC(=O)c2ccccc2Cl)no1` it was -0.157; in that of `Cc1ccc(NC(=O)C2CCN(S(=O)(=O)c3c(C)[nH]c(=O)[nH]c3=O)CC2)cc1`, 0.143; in that of `CC1CCCN(C(=O)CSCC(=O)Nc2nc(-c3cccs3)cs2)C1` (stereo not given), 0.503. Next, `O=C(Nc1c2ccccc2nc2ccccc12)C(Cl)(Cl)Cl`: 0.00142; `Cc1ccc(S(=O)(=O)N2CCN(C(C)C(=O)Nc3ccccc3-c3ccccc3)CC2)cc1` (stereo not given): -0.164; `CCOC(=O)CSc1nc2cc(S(=O)(=O)Nc3ccccc3OC)ccc2o1`: -1.72. Next, `Cc1ccc(SCCC(=O)NC(C(C)C)C(C)C)cc1`: -0.0763; `CCOC(=O)Cc1nnc(NC(=O)C(CC)Sc2nc(C)cc(C)n2)s1` (stereo not given): -0.0328. Molecule `Cc1ccc(S(=O)(=O)N(CC(O)CN2C(=O)NC(C)(C)C2=O)c2ccccc2)cc1` (stereo not given) had a z-score of 0.077. Take `Cc1nc2ccc(S(=O)(=O)c3ccc4nc(C)[nH]c4c3)cc2[nH]1`: the z-score was -0.229.

`O=C(O)CN1C(=O)SC(Nc2ccccc2)C1=O` (stereo not given): the z-score worked out at 0.0986.

Consider `COc1ccc(C2NC(=O)NC(c3ccccc3)=C2c2nc3ccccc3s2)cc1` (stereo not given), for which the z-score is -1.01. Consider `O=C(Nc1ccccc1)N1CCN(Cc2ccccc2)CC1`, for which the z-score was -0.0692. For `CCCCSc1nnc(-c2ccc(C)cc2)n1C`, the z-score is -0.303. `Cn1c(=O)c2c(nc(CN3CCN(C(c4ccccc4)c4ccccc4)CC3)n2CC(N)=O)n(C)c1=O` returned a z-score of 0.516. Next, `COc1ccccc1Oc1c(C)oc2c(CN3CCN(CCO)CC3)c(O)ccc2c1=O`: 0.798; `O=C(NC1CCCCC1)c1ccc(CS(=O)(=O)Cc2ccccc2F)o1`: 0.401.

In turn, `CC1=C(C(=O)Nc2cccnc2)C(c2ccc(C(C)C)cc2)n2ncnc2N1` (stereo not given) gave a z-score of 0.375. Next, `Cc1nc2ccsc2c(=O)n1-c1ccc(Cl)cc1`: -0.0701; `CCN=C1SC(CC(=O)Nc2ccccc2)C(=O)N1CC` (stereo not given): 0.224. In the case of `CC(C)c1ccc(OCC(=O)Nc2ccc(OC(F)(F)F)cc2)cc1` it was -0.173; in that of `COC(=O)c1sccc1NC(=O)CSc1nnnn1-c1ccccc1C`, 0.0457.

Consider `Cc1ccc(OCC(=O)N/N=C/C=C/c2ccco2)cc1`, for which the z-score amounted to 0.0246. Next, `O=C(Nc1ccncc1)Nc1ccc(F)cc1F`: 0.57; `O=C1C=C(NC2=CC3OC(c4ccccc4)OCC3OC2=O)CCC1` (stereo not given): -0.2.

`CC(C)(Oc1ccc(CCNC(=O)c2ccc(-c3ccccc3)o2)cc1)C(=O)O` yielded a z-score of -0.491. In the case of `CC(=O)NC(CC(=O)NC1CCCCCC1)c1ccccc1` (stereo not given) it was 0.55. The molecule `COc1ccccc1NC(=O)NCCCN1CCN(c2cccc(Cl)c2)CC1` showed a z-score of -0.552. Next, `O=C(CCC(=O)OC(C(=O)c1ccccc1)c1ccccc1)Nc1ccccc1` (stereo not given): -0.106; `CCCn1c(NC(=O)C2CCN(S(=O)(=O)c3cccs3)CC2)nc2ccccc21`: 0.158. In the case of `N#Cc1ccccc1OCC(=O)OCC(=O)c1ccc2c(c1)NC(=O)CO2` it was -0.0953. The molecule `CC1=CC2=NC(=O)CC(C)(C(=O)N(CC(=O)NC(C)(C)C)C3CCCC3)N2C=C1` (stereo not given) displayed a z-score of 0.126.

Molecule `CC1CC1C(=O)Nc1nc(-c2ccccc2)cs1` (stereo not given) registered a z-score of -0.311.

Molecule `Cc1c(CC=C(Cl)Cl)c(=O)[nH]c2c(C)cccc12` had a z-score of 0.363.

`CCOc1ccc(-c2nn(-c3ccccc3)cc2/C=C2\SC(=S)N(C3CCS(=O)(=O)C3)C2=O)cc1` (stereo not given) came in with a z-score of -0.352.

The molecule `CCN(CC)S(=O)(=O)c1cc(NC(=O)COC(=O)c2sc3ccccc3c2Cl)ccc1C` yielded a z-score of -0.0136. As for `COc1ccc(-c2nc(C)ncc2-c2csc(C)n2)c(O)c1`, the z-score is -0.348.

`CCOC(=O)c1cccc(NC(=O)Cn2cnc3c2c(=O)n(C)c(=O)n3C)c1` had a z-score of -0.516. As for `C=CCn1c(-c2ccc3[nH]c(C)c(C)c3c2)n[nH]c1=S`, the z-score was -0.461. `Cc1c(C(=O)Nc2ccc(N3CCOCC3)cc2)oc2ccccc12` registered a z-score of -0.15. Next, `CCOC(=O)c1sc(NC(=O)c2cc3c(s2)CCC(C)C3)nc1C` (stereo not given): -0.0661; `Cc1nc(N[C@@H](Cc2ccccc2)C(=O)O)c2oc3ccccc3c2n1`: -0.144; `COc1ccccc1N=CC1=C(O)CC(c2ccccc2)CC1=O` (stereo not given): -0.194.

For the molecule `O=C(CCSCc1ccccc1Cl)N1CCN(c2cccc(Cl)c2)CC1`, the z-score was found to be 0.0702. Next, `Cc1onc(-c2c(F)cccc2Cl)c1C(=O)Nc1sc2c(c1C#N)CCC(C(C)(C)C)C2` (stereo not given): -0.185; `COC(=O)C1=C(C)N(c2ccc(C)cc2)/C(=C/c2cccs2)C1=O`: -0.108.
